Measurements: ChEMBL document CHEMBL4888484, “Replenishing the malaria drug discovery pipeline: Screening and hit evaluation of the MMV Hit Generation Library 1 (HGL1) against asexual blood stage Plasmodium falciparum ,using a nano luciferase reporter read-out” (2022)
In all, about 4,800 compounds went through this assay and about 410 (8.5%) showed an effect of 50% or more. Some of the results follow.

test system: Plasmodium falciparum; experiment: Confirmatory screen in NF54 pLDH assay, in single point, at 2uM, 72h; type: functional, Erythrocyte; conditions: timepoint 72 hour

Compared with `CCCCNC(=O)Cc1noc([C@@H]2Cc3ccccc3O2)n1`, `CCOC(=O)Cc1csc(NC(=O)Cc2c[nH]c3ccccc23)n1` is lower in “% Inhibition” value: -6% for the first, -8% for the second.

Compared with `O=C(c1ccc2c(c1)OCCCO2)N1CCCCC1`, `CC1(C)Oc2ccc(NC(=O)C3CCCCC3)cc2NC1=O` is higher in “% Inhibition” value: -15% for the first, 15% for the second.

Going from `CC1(C)Oc2cc(S(=O)(=O)NC3CCCCC3)ccc2NC1=O` to `CCc1nc(CNc2ccc(C)c(S(=O)(=O)NC3CC3)c2C)n[nH]1`, the “% Inhibition” value falls from -7% to -15%.

First: NC(=O)C1(CNC(=O)c2cccn3c(=O)[nH]nc23)CCCC1
Second: O=C(NCC1CCCCC1)c1cn[nH]c1-c1ccccc1
The “% Inhibition” value of the first is lower: 0% for the first, 6% for the second.

First: O=C(Nc1nc(Cc2ccccc2)cs1)C1CCOCC1
Second: COc1cccc(Cn2nccc2NC(=O)C2CCOCC2)c1OC
The “% Inhibition” value of the first is higher: 10% for the first, 1% for the second.

First: CCOC(=O)C(C)NC(=O)C(C)NC(=O)c1ccc(F)c(C#N)c1 (stereo not drawn)
Second: CC(=O)N1CCc2cc(-c3ccc(C(=O)NCCC(C)C)cc3)ccc21
The “% Inhibition” value of the first is lower: 7% for the first, 11% for the second.

First: COC[C@H]1CCCN1C(=O)C[C@@H]1O[C@H](CNC(=O)Nc2ccccc2)[C@@H](O)[C@H]1O
Second: COc1ccc(CNC(=O)Nc2ccc3c(c2)N(C(=O)c2ccccc2)CCC3)cc1OC
The “% Inhibition” value of the first is lower: 0% for the first, 11% for the second.

First: CC(=O)N[C@H]1CCc2nc(N)sc2C1
Second: Cc1cnc(NC(=O)C2CCC(=O)N(C)C2c2cccc(F)c2)s1 (stereo not drawn)
The “% Inhibition” value of the first is higher: 13% for the first, 2% for the second.

Compared with `COc1cc2c(cc1OC)CN(c1noc(-c3ccccc3)n1)CC2`, `CCn1cc(-c2nc(-c3ccccc3C)no2)c(=O)c2cc(F)c(N3CCOCC3)cc21` is higher in “% Inhibition” value: 1% for the first, 36% for the second.

Compared with `Cc1ccc2nc(-c3cc4ccccc4o3)cn2c1`, `Cc1nc2c(-c3ccco3)nc(=O)n(CC(=O)Nc3cccc4ccccc34)c2s1` is lower in “% Inhibition” value: 52% for the first, -1% for the second.

First: CC[C@H](C)N1CCN(Cc2cccc(Oc3ccccc3)c2)CC1
Second: C[C@@H](CCc1ccccc1)NC(=O)c1cc2c(Cl)ccc3c2n1CCO3
The “% Inhibition” value of the first is lower: 9% for the first, 12% for the second.

First: COc1ccc(OCC(=O)Nc2ccc(N3CCn4c(nc5ccccc54)C3)cc2Cl)cc1
Second: CCn1c(=O)c(N2CCN(C(=O)Nc3ccccc3Cl)CC2)nc2ccccc21
The “% Inhibition” value of the first is lower: -14% for the first, 0% for the second.

Going from `CN(C)c1ccc(NC(=O)Cn2cnc3ccc(Cl)cc3c2=O)cc1` to `COc1cccc(Cn2c(=O)c3sccc3n(CC(=O)Nc3ccc(N(C)C)cc3)c2=O)c1`, the “% Inhibition” value rises from -6% to 13%.

First: CCC[C@]1(C)NC(=O)N(c2csc(-c3ccccc3)n2)C1=O
Second: OCCN(Cc1cccnc1)c1cc(-c2ccccc2)nc2ncnn12
The “% Inhibition” value of the first is lower: 3% for the first, 10% for the second.

Compared with `Fc1cccc(F)c1CNC[C@@H]1NCCc2ccccc21`, `Oc1ccccc1CCN[C@H]1CCc2ccc(F)cc21` is higher in “% Inhibition” value: 1% for the first, 95% for the second.

First: Cc1nc(C)c(C(=O)N[C@](C)(c2ccc(Br)cc2)C(C)C)o1
Second: CC(=O)c1ccc(C(C)(C)C)cc1NC(=O)C(C)C
The “% Inhibition” value of the first is lower: -13% for the first, 8% for the second.

Compared with `CC(C)CNCc1cccc(Br)c1`, `Cc1ccc(Nc2nc(C)c(C(=O)NCc3cccc(Br)c3)s2)c(C)c1` is lower in “% Inhibition” value: 14% for the first, -19% for the second.

Compared with `Cc1c(C(=O)NCCc2ccc(Cl)cc2)oc2ccc3c(c12)[C@@H](O)CC(C)(C)O3`, `COc1ccccc1CNC(=O)c1nnn(-c2ccc3noc(-c4ccc(Cl)cc4)c3c2)c1C` is lower in “% Inhibition” value: 10% for the first, 3% for the second.

First: Cc1ccc(CNc2ccc(S(C)(=O)=O)cc2)c(=O)n1C
Second: CCc1nnc2ccc(S(=O)(=O)Nc3ccc(F)c(F)c3)cn12
The “% Inhibition” value of the first is lower: -9% for the first, -8% for the second.

Going from `CC(=O)N1CCc2cc(-c3ccc(C(=O)NCC[C@H](C)N4CCCC4)cc3)ccc21` to `CCNC(=O)c1csc(COc2ccc3c(c2)[C@H](c2ccc(C)cc2)N(C(=O)CC(C)C)CC3)n1`, the “% Inhibition” value rises from 9% to 45%.

First: Oc1cc2ccccc2cc1-c1nnc(-c2ccccc2)c(-c2ccccc2)n1
Second: Cc1ccc(-n2nc(-c3ccccc3)c3cnc4cc(F)ccc4c32)cc1C
The “% Inhibition” value of the first is lower: -11% for the first, 6% for the second.

First: Cc1cc(NC(=O)Nc2ccccc2)c2[nH]c(C(=O)NCCN3CCOCC3)c(-c3ccccc3)c2c1
Second: CCCN1C(=O)c2ccccc2N2C(=O)CC[C@@]12C(=O)Nc1ccccc1
The “% Inhibition” value of the first is lower: 6% for the first, 97% for the second.

First: c1ccc(C[C@]2(c3ccccc3)CCNC2)cc1
Second: CNC(=O)C(c1ccccc1)C(C(=O)NC)c1cccc2ccccc12 (stereo not drawn)
The “% Inhibition” value of the first is higher: 11% for the first, 1% for the second.

First: CC(=O)N1C[C@H]2CN(C(=O)Cc3cccc(Cl)c3)CC[C@@]2(c2nc(C)n[nH]2)C1
Second: Cc1cccc(CNC(=O)c2n[nH]c3c2CN(C(=O)c2ccoc2)CC3)c1
The “% Inhibition” value of the first is higher: 6% for the first, -3% for the second.

First: Cc1ccc([C@@H]2c3cccn3CCCN2Cc2cccs2)cc1C
Second: Cn1c(C(=O)N2CC[C@H](N)C2)ccc1-c1cccc(Br)c1
The “% Inhibition” value of the first is higher: 12% for the first, 11% for the second.

Compared with `COc1cccc([C@H]2CC(=O)Nc3c2cnn3C)c1`, `COc1ccc(-n2nc(C)c3c2NC(=O)C[C@@H]3c2ccc3c(c2)OCO3)cc1` is higher in “% Inhibition” value: -11% for the first, -10% for the second.

Going from `O=C(COC(=O)c1nccc2ccccc12)Nc1cc(F)ccc1Cl` to `Cn1ccnc(N[C@@H](COc2ccccc2F)c2ccccc2)c1=O`, the “% Inhibition” value falls from 11% to 3%.

Compared with `CC1(C)CN(C(=O)CN2CCOCC2=O)C2CCCC21` (stereo not drawn), `CC[C@@]1(C)CCCN(C(=O)Cc2c(C)noc2Cl)C1` is higher in “% Inhibition” value: -14% for the first, 87% for the second.

Going from `COc1cccc(N2CCN(C(=O)C3CCN(c4nc5cccnc5n(C)c4=O)CC3)CC2)c1` to `CCN(CC)CCCNC(=O)[C@H]1CCCN(c2nc3ccccc3n(Cc3ccccc3)c2=O)C1`, the “% Inhibition” value rises from -7% to 12%.

First: Cc1ccnc2nc(C(=O)N(CC3CC3)CC(F)(F)F)nn12
Second: CN(C)C(=O)NCCc1ncc(C(F)(F)F)cc1Cl
The “% Inhibition” value of the first is lower: 10% for the first, 11% for the second.

First: Cc1cc(OC[C@@H](O)CNC(C)(C)CC(C)(C)C)cc(C)c1Cl
Second: CN(C)CC(O)COc1ccc(S(=O)(=O)c2ccc(OCC(O)CN(C)C)c(Cl)c2)cc1Cl (stereo not drawn)
The “% Inhibition” value of the first is lower: 57% for the first, 61% for the second.

Compared with `Cc1ccc(S(=O)(=O)N2CCN(C(=O)CCn3cncn3)CC2)cc1`, `O=C(NCCCn1cccn1)[C@H]1CN(S(=O)(=O)c2cccnc2)CC12CCCCC2` is higher in “% Inhibition” value: -16% for the first, 10% for the second.

Going from `CC[C@](O)(C(=O)N(C)Cc1ncon1)c1cccc(Cl)c1` to `Cc1cccc(NC(=O)c2cc(Cl)c[nH]2)n1`, the “% Inhibition” value rises from -13% to 6%.

First: Cc1cc(NCCc2nccn2C)ncn1
Second: Cc1ccc(-c2ccnn2C)cc1NC(=O)c1cscn1
The “% Inhibition” value of the first is lower: -4% for the first, 4% for the second.

Compared with `Clc1ccccc1-c1c[nH]c([C@@H]2CCCN2)n1`, `CC1=N[C@H](N2CCN(c3ccccc3)CC2)NC(O)=C1` is lower in “% Inhibition” value: 6% for the first, 1% for the second.

Going from `COc1c(O)ccc2c(=O)c3c(O)cc(O)c(OC)c3n(C)c12` to `CC(=O)N1C(C(=O)O)Cc2c([nH]c3ccccc23)C1c1ccc2c(c1)OCO2` (stereo not drawn), the “% Inhibition” value rises from 4% to 5%.

Compared with `CC1CCC(NC(=O)N2CCC(OC[C@H]3CCCO3)CC2)CC1` (stereo partly drawn), `CCN(CCC1CCN(C(=O)Nc2ccc(OC3CCOCC3)c(C)c2)CC1)CC(C)C` is higher in “% Inhibition” value: -6% for the first, -3% for the second.

`COC1CCCCC1NC(=O)c1ccc(-c2noc(C(F)(F)F)n2)cc1` (stereo not drawn) and `O=C(O)c1ccc(NS(=O)(=O)c2cc(Cl)ccc2OC[C@H]2CCCCO2)cc1` are the same in “% Inhibition” value: 8% for the first, 8% for the second.

First: c1cn(C[C@@H]2CCCN2c2nc(C3CCCC3)ns2)nn1
Second: COc1nn(C)cc1C(=O)N1CCC[C@H](Oc2cccnn2)C1
The “% Inhibition” value of the first is lower: -8% for the first, 4% for the second.

Compared with `CCOC(=O)c1nc(-c2cccnc2)cs1`, `COCCN(c1ccncc1)S(C)(=O)=O` is higher in “% Inhibition” value: -8% for the first, 10% for the second.

Going from `COC(=O)C1C2CCC(C2)C1NC(=O)c1ccncc1` (stereo not drawn) to `Cc1cc(F)ccc1-n1ccc(C(=O)N(C[C@H]2CCOC2)C2CC2)n1`, the “% Inhibition” value falls from 2% to -12%.

Compared with `CCc1ccc(/C=C/c2c[nH]c3ccccc23)[n+](CC)c1`, `O=S(=O)(c1ccc2nncn2c1)N(Cc1cccc(Cl)c1)c1ccccc1` is lower in “% Inhibition” value: 88% for the first, 9% for the second.

Compared with `CC[C@H](O)CN1CCC(Nc2ncnc3cc(Cl)ccc23)CC1`, `CC(C)(C)n1nc2nc(NCCN3CCCCC3)nc(-c3ccc(F)c(Cl)c3)c2c1N` is higher in “% Inhibition” value: 75% for the first, 76% for the second.

Going from `O=C(Nc1[nH]c(=O)ncc1F)c1cc(F)c(F)cc1Br` to `O=C(CCCc1ccc2c(c1)CC(=O)N2)Nc1ccc2c(c1)C(=O)NC2`, the “% Inhibition” value falls from 86% to -14%.

Going from `Cc1cc(C(=O)N2CC3CCCC3C2C(N)=O)c2c(C)noc2n1` (stereo not drawn) to `Cc1noc(NCc2cc(C)oc2C)n1`, the “% Inhibition” value falls from -5% to -17%.

First: Cc1cc(Br)ccc1CN(C)S(C)(=O)=O
Second: CC(C)(C)N(Cc1ccc(F)cc1)C(=O)[C@H]1CCOC1
The “% Inhibition” value of the first is lower: -4% for the first, 15% for the second.

Compared with `CCN(CC)c1ccc(NS(=O)(=O)c2cc(S(=O)(=O)c3ccc(Cl)c(S(=O)(=O)Nc4ccc(N(CC)CC)cc4)c3)ccc2Cl)cc1`, `CC(C)c1ccc(Oc2cnn(-c3cccc(Cl)c3)c(=O)c2Nc2cccc(C(=O)NC3CC3)c2)cc1` is higher in “% Inhibition” value: 5% for the first, 54% for the second.

Going from `C#CCN1C(=O)N[C@@](CC)(C(C)C)C1=O` to `Cc1nn(C)c(Cl)c1CNC[C@@H](c1ccsc1)N(C)C`, the “% Inhibition” value falls from 12% to 9%.

Going from `O=C(Nc1cccc(C(F)(F)F)c1)C(Oc1ccccc1)Oc1ccccc1` to `O=C(NCCOc1ccccc1)c1ccc(C(=O)NCCOc2ccccc2)s1`, the “% Inhibition” value rises from -19% to 3%.

First: FC(F)(F)C1CN(c2nc(-c3ccccn3)nc3c2CCC3)C1
Second: Fc1cccc(F)c1-n1c(CN2CCCCC2)csc1=S
The “% Inhibition” value of the first is higher: 54% for the first, -5% for the second.

First: CC1=C2CC(C3(N)CC4(CC4)NC3=O)C(O)CC2(C)CCC1 (stereo not drawn)
Second: CCC[N+]1(CC#C[C@@](O)(c2ccccc2)C2(C)CCCC2)CCCCC1
The “% Inhibition” value of the first is lower: 5% for the first, 42% for the second.

With `COc1cccc(COc2cccc(Cl)c2CNc2nnc(C(F)(F)F)o2)c1` the “% Inhibition” value was 11%.
